Our source for the binding signal values is article PMC12136788.

The labels stand for the following.
B1: chr5:76733371:76733472:+|CDS|ENSG00000181104|msi1|total|mutant (ssRNA)
RNA: GGGAGUUCUACAGUCCGACGAUCGAUCCCAGCAGUUAUAACAGCAGUGGGCAGUUGAUGGCAAGUAAAAUGGAUACCUGCUCCCGUAACCUGAAUAACAGCAUAUACAAAAAGCUGUUAACUCCGGAAAAGGGACUGCUGGGACAACAGAGGAUUGAGCAUCA
B2: chrX:80717640:80717741:-|CDS|ENSG00000165288|msi1|total|mutant (ssRNA)
RNA: GGGAGUUCUACAGUCCGACGAUCCUGAGAAGUCCAAACAUGGACAUAUCUUCUUCCCCAAACAUCAGGCUUCGAAGACACCGCCGUCAAAUUGAAGGUGUCCGACAAAUGCAUAACAAUGCUCCUCGGAGCCAGAUGGCCACUCAACAGAGGAUUGAGCAUCA
B3: chr11:69653362:69653473:+|3pUTR|ENSG00000110092|msi1_unk|FALSE|overlapping (ssRNA)
RNA: GGGAGUUCUACAGUCCGACGAUCACUGCCAUGUACUAGUUUUAGUUUUCUCUUAGAACAUUGUAUUACAGAUGCCUUUUUUGUAGUUUUUUUUUUUUUUAUGUGAUCAAUUUUGACUUAAUGUGAUUACUGCUCUAUUCCAAACAACAGAGGAUUGAGCAUCA
B4: chr21:14371318:14371404:-|3pUTR|ENSG00000155304|msi1_unk|total|mutant (ssRNA)
RNA: GGGAGUUCUACAGUCCGACGAUCUAUGAAUAACAAUCUGAAGUCUUUUCAUAAAAAAAAUUAAUAAACUUCCGUUGUACAUUCCGCCAGUGUUAUUUGAAGUAUGUAACUUUUAAAAUAUUAAGUGUCUUGUAUGAUCCGAAUCAACAGAGGAUUGAGCAUCA
B5: chr6:96891104:96891324:-|CDS|ENSG00000123545|unk|total|mutant (ssRNA)
RNA: GGGAGUUCUACAGUCCGACGAUCUAAUCAUAAGCUUUUCCCAGAAACCUGGACUGCUGAGAAAAUAAUGCAGGAAUACCAGUCCGAACAGAAAGAUGUGAAUUCUCUUCUUAAAUAUUUUGUUACUUUUGAAGUCGAAAUCUUCAACAGAGGAUUGAGCAUCA
B6: chr6:105096826:105097152:-|3pUTR|ENSG00000112276|msi1|total|mutant (ssRNA)
RNA: GGGAGUUCUACAGUCCGACGAUCACUUGCAACCCCGUUUUAAAAUACAUGAGGAUUUUAUGAAAGCUUUAUACAGACAUUUACCGGAAACUCAUUCUUUGAUUUCCGGUGCCAUUUAAAUUGAUAACACUUACUUUAUAAAAACAACAGAGGAUUGAGCAUCA
B7: chr2:60940222:60942394:-|three_prime_utr|ENSG00000162927|control|control|control (ssRNA)
RNA: GGGAGUUCUACAGUCCGACGAUCGUAACAUCUCAGGAUCUAUAUAUGUGUAUAUUUUGUGUUAAAUUGUUCCAAGGAUGUCUUAGGAUUUUUCUCAUUCCCUCUUUCACCCCCACAAACCAAACUAUGAAUAAUGAAAUAAUUCAACAGAGGAUUGAGCAUCA
B8: ENSG00000070961:be:win_3101|CDS|ENSG00000070961|bound_else_gene|NA|bound_elsewhere_windowed (ssRNA)
RNA: GGGAGUUCUACAGUCCGACGAUCCAGAACUUUCAAUAGAACAGUGGCUAUGGUCAAUAUUCCUAGGAAUGGGAACAUUACUCUGGGGCCAGCUUAUUUCAACAAUUCCAACUAGCCGUUUAAAAUUCCUCAAAGAAGCUGGUCCAACAGAGGAUUGAGCAUCA
B9: chr17:30248266:30248367:-|3pUTR|ENSG00000108578|msi1|total|mutant (ssRNA)
RNA: GGGAGUUCUACAGUCCGACGAUCUUGGGUGAGAACAACCAAAAUCUUAUCAUGGUCUCAGUCAUAAUCAUCCGGGGGAACUCCCGCCAAAUGGUUUAACUUCUGCCUGUGGAACUGGGGAUUGGGUGGGCAGGAAAAGGUGAUCAACAGAGGAUUGAGCAUCA
B10: chr7:7573188:7573293:+|CDS|ENSG00000164654|unk|total|mutant (ssRNA)
RNA: GGGAGUUCUACAGUCCGACGAUCCCAUAUUUCCACGAUCGUGUUGCUUCCUUCUAUGAAGGUCAGGUUGCAAUAUGGGAUCUCCGAAAAUUUGAGAAGCCAGUUUUGACAUUGACUGAGCAACCAAAACCCUUAACAAAAGUACAACAGAGGAUUGAGCAUCA
B11: chr3:170465896:170466000:-|3pUTR|ENSG00000013293|unk|FALSE|unique (ssRNA)
RNA: GGGAGUUCUACAGUCCGACGAUCACUUAGGUAGUUGCAUUCCAUGAGAUCACAUUUCACUUCUGAACCUUAUUCCUUGGGGCUAGCUCACUUUCAGAGGUGUAUUUUUUUUUCCUGUUAUUUCCCAGAGUAGUUUCACUGAAGCAACAGAGGAUUGAGCAUCA
B12: chr15:56434137:56434395:-|CDS|ENSG00000138587|control|control|control (ssRNA)
RNA: GGGAGUUCUACAGUCCGACGAUCAGAGGAAGAGGAGAACUUUAGAAAAACUAUGCUAGCUAAAUUUGCUGAGGAUGAUCGAAUAGAAUUAAUGAAUGCUCAGAAACAAAGAAUGAAGCAGCUGGAACACAGGAGGGCUGUGGACAACAGAGGAUUGAGCAUCA
B13: ENSG00000114744:stop:overlap|stop_codon|ENSG00000114744|stop_codon|NA|stop_codon (ssRNA)
RNA: GGGAGUUCUACAGUCCGACGAUCAACAAGCAUUGGAAGAGAUGAAGACAAAUCACUGUAGGAGAGUUGUUCGCAACAUCAAGUAGUACCAGUUUUAAGGUUUUAAUUCAUUUGAAUCACUUAUGAAUUGAUGAUAUACAGCAACAACAGAGGAUUGAGCAUCA
B14: ENSG00000124766:be:win_3051|3pUTR|ENSG00000124766|bound_else_gene|NA|bound_elsewhere_windowed (ssRNA)
RNA: GGGAGUUCUACAGUCCGACGAUCAGGGCUAGAGUUUUAACUUUUAAUUUUUUAUAUUUAAAUGUAGACUUUUGACACUUUUAAAAAACAAAAAAAGACAAGAGAGAUGAAAACGUUUGAUUAUUUUCUCAGUGUAUUUUUGUACAACAGAGGAUUGAGCAUCA
B15: chr15:93024873:93024975:+|3pUTR|ENSG00000173575|unk|FALSE|unique (ssRNA)
RNA: GGGAGUUCUACAGUCCGACGAUCGGUCCAGCUCUGAUUCGGGUCACCACUCCUGCACUUUGGCACCCCAUCCCAUUCCAGCCUAGUUCUGGCCUCCCACUUUGACGGGCACUUGGAGGAGGAGCUGACUGUGUGUGUACCAGCCAACAGAGGAUUGAGCAUCA
B16: chr11:85958428:85958534:-|3pUTR|ENSG00000073921|unk|FALSE|unique (ssRNA)
RNA: GGGAGUUCUACAGUCCGACGAUCAGAAACAAUAACUGAAAUUAACUUUUCUUUUUUUAAAAAAAAUUAUAUUCAGUUUGCAGUAGACAUUCCUUAAGUAUUUGUAUUUAUUUAUGAUUAUCAAUUUUACAUAACAUUAAUAUUCAACAGAGGAUUGAGCAUCA
B17: chr17:44253117:44253371:-|CDS|ENSG00000004939|control|control|control (ssRNA)
RNA: GGGAGUUCUACAGUCCGACGAUCCAAACCUGAGCGCAAGAUGGUCAAGGGCUCCGGCUUCCACCUGGACCUGCUGCUGGUAGUAGGCAUGGGUGGGGUGGCCGCCCUCUUUGGGAUGCCCUGGCUCAGUGCCACCACCGUGCGCAACAGAGGAUUGAGCAUCA
B18: chr1:114568131:114568247:-|CDS|ENSG00000116752|unk|total|mutant (ssRNA)
RNA: GGGAGUUCUACAGUCCGACGAUCUUCCCGUUGGGUAUCCCUGGUCAGUAAGAAUUAUGAGAUUGAACGGACUAUUGUUCAGCCCGAAAAUGAAAUCUAUCAAAUUAAGCAGCAACAUGGAGAGGCAAACAAAGAAAACAUCCGCAACAGAGGAUUGAGCAUCA
B19: chr19:4839056:4839157:-|3pUTR|ENSG00000105355|msi1|total|mutant (ssRNA)
RNA: GGGAGUUCUACAGUCCGACGAUCUCUAUAAUGCAGCUGUGCUCUGGAGUCCUCAACCCGGGGCUCAUUUCAAACUUAUUUUCCCGCCACUCCUCCCAGCUCUUCUGUGCUGUCCACUUGGGAAGCUAAGGCUCUCAAAACGGGCAACAGAGGAUUGAGCAUCA
B20: ENSG00000070961:be:win_3401|CDS|ENSG00000070961|bound_else_gene|NA|bound_elsewhere_windowed (ssRNA)
RNA: GGGAGUUCUACAGUCCGACGAUCAACCGGAAUCAAGAAGUUCGAUUCACAACUUUAUGACACAUCCUGAGUUUAGGAUAGAAGAUUCAGAGCCUCAUAUCCCCCUUAUUGAUGACACUGAUGCCGAAGAUGAUGCUCCUACAACAACAGAGGAUUGAGCAUCA
B21: chr17:55392621:55394333:-|three_prime_utr|ENSG00000108960|control|control|control (ssRNA)
RNA: GGGAGUUCUACAGUCCGACGAUCACUGUGAAAGUAUAAAGGCUGUGUUCUGGAAUUUUCUGCCUCACAGCAAAUAAAUAAGGUAGUGAAUUAAUUAUUCAUUCCAUUCCACUAUCAUGAAGGACUCUGAAUAGACUUGGCCAACAACAGAGGAUUGAGCAUCA
B22: chr15:60490033:60490134:-|3pUTR|ENSG00000069667|unk|total|mutant (ssRNA)
RNA: GGGAGUUCUACAGUCCGACGAUCUGCUGGAUUUGGGACAUGCUUUUCUCUUUAAAUACAUAAUAUCAUUAUAUAAAUUAUUCCCGAGUGUAUUUAAUCCGGAUAAAAUUACUUCCUCCGUAUGGAUAUUUGACAUCUACCGGGCAACAGAGGAUUGAGCAUCA

This is one part of the list.

This assay deals with T1, UNK ZnF1-6 (called full-length) (human, UniProt Q9C0B0 30-357).
T1 sequence: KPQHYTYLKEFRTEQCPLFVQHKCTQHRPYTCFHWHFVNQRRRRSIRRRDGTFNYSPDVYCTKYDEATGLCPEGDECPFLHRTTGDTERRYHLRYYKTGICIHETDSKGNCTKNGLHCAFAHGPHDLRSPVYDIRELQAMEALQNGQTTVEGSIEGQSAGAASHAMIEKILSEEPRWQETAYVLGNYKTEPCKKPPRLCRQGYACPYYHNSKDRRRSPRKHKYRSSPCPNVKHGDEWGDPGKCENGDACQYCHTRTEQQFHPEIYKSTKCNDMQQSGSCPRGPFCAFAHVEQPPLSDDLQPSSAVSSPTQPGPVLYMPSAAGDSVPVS
As to the kind of experiment: nsRBNS (natural sequence RNA bind-n-seq); RBNS binding buffer (assumed for nsRBNS): 25 mM Tris pH 7.5, 150 mM KCl, 3 mM MgCl2, 0.01% Triton X-100, 500 ug/ml BSA, 20 U/ml SUPERase-In, 4 C; UNK is unkempt and MSI1 is Musashi-1; names of the RNAs are library labels; protein concentration not given here; high values mean tight binding.
The molecule B1 had a binding signal of 0.568 enrichment R.

As for B2, the binding signal came to 0.387 enrichment R.

B3: the binding signal turned out to be 80.9 enrichment R.

Consider B4, for which the binding signal was 0.702 enrichment R.

In the case of B5, the binding signal amounted to 0.432 enrichment R.

Molecule B6 displayed a binding signal of 1.12 enrichment R.

Turning to B7, the binding signal stood at 1.88 enrichment R.

For the molecule B8, the binding signal was 1.91 enrichment R.

With B9, the binding signal was 1.22 enrichment R.

Turning to B10, the binding signal was 0.291 enrichment R.

For the molecule B11, the binding signal turned out to be 2.34 enrichment R.

B12 came in with a binding signal of 6.88 enrichment R.

Molecule B13 had a binding signal of 2.3 enrichment R.

B14 showed a binding signal of 5.72 enrichment R.

As for B15, the binding signal is 4.71 enrichment R.

B16 had a binding signal of 2.18 enrichment R.

In turn, B17 came in with a binding signal of 0.5 enrichment R.

On to B18, for which the binding signal worked out at 0.717 enrichment R.

Consider B19, for which the binding signal is 0.812 enrichment R.

In turn, B20 returned a binding signal of 0.45 enrichment R.

B21 yielded a binding signal of 0.43 enrichment R.

Consider B22, for which the binding signal stood at 1.93 enrichment R.
